We go through 59 compounds from PubChem BioAssay AID360 (National Center for Advancing Translational Sciences (NCATS), 2006).

Each structure is given as a SMILES string. In all, about 48,000 compounds went through this assay and about 550 (1.1%) were called active. Not shown: some 4% with an inconclusive outcome. Rule as the data show it: active = potency below about 15 µM; inconclusive = mostly about 16 µM to 33 µM; inactive = weaker than that. Some of the results follow. Bounds are passed on as bounds.
Potency is read from the fitted curve at half-maximal effect.

The assay concerns the target Lysosomal acid glucosylceramidase (Homo sapiens) (UniProt P04062). The assay is described as follows: Glucocerebrosidase.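 Also: the screen sought inhibitors.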 Particulars: purified enzyme, resorufin glucoside fluorescence (screen aimed at inhibitors), 20 min. In short, it runs like this: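 Wild-type enzyme at 0.2 nM final in 50mM citric acid/KH2PO4, 10mM sodium taurocholate, 0.01% tween-20, pH 5.9, with resorufin beta-D-glucopyranoside at 30 uM final. Compounds titrated, 20 min at RT, red fluorescence read; AC50 from titration.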
Chain of UniProt P04062 (P04062 whole entry, looked up): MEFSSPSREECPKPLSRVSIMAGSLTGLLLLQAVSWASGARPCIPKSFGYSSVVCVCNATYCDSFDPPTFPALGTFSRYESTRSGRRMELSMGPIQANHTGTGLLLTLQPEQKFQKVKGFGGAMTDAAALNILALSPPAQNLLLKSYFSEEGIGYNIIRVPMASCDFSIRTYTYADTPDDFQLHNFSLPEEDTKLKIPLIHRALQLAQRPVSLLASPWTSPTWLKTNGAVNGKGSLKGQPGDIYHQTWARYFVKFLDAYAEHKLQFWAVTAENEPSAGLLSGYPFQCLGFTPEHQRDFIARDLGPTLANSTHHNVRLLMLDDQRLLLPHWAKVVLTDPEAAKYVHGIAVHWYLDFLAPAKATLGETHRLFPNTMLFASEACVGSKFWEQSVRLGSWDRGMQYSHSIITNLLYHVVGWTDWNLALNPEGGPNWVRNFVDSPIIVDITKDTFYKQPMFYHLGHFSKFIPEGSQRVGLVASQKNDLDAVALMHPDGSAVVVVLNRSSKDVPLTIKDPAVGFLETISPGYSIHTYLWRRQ
For the compound `Cc1oc(-c2ccc(Cl)cc2)nc1CN1CCC(C(=O)NCc2cccnc2)CC1`, the Potency is inactive: > 76.9 µM. As to `CCOc1nc2c(c(=O)n(C)c(=O)n2C)n1Cc1ccccc1Cl`, the Potency is inactive: > 76.9 µM. The value for `CC(C)NC(=O)Cn1c(SCC(=O)N2CCCc3ccccc32)nc2ccccc21` was inactive: > 76.9 µM; that for `CSC1=C(C#N)C(c2cccs2)CC(=O)N1C` (centres undefined) was inactive: > 76.9 µM. The same measure for `Cc1cc(C)c(OCC(=O)Nc2ccc3c(c2)OCO3)cc1C`: inactive: > 76.9 µM; for `Cc1cc(C)n(-c2ccc(C(=O)Nc3nc4ccccc4s3)cc2)n1`: inactive: > 76.9 µM.

On to `O=C(O)c1ccc(CSc2ncn[nH]2)cc1`, for which the Potency is inactive: > 76.9 µM. Consider `CC(=O)NC(=S)c1c(N)n(Cc2ccccc2)c(=O)n(C)c1=O`, for which the Potency was inactive: > 76.9 µM. In the case of `Clc1ccc(Cl)c(OCCN2CCOCC2)c1`, the Potency was inactive: > 76.9 µM. The same measure for `CC(C)(C)n1ncc2c(=O)n(CC(=O)N3CCCCCC3)cnc21`: inactive: > 76.9 µM; for `CC(OCC(O)CN(C)CCOc1ccccc1)c1ccc(Cl)cc1` (centres undefined): inactive: > 76.9 µM.

`COc1ccc(OC)c(CNC(=O)Cc2c(C(=O)O)[nH]c3ccccc23)c1`: the Potency was inactive: > 76.9 µM. As for `COCCCNC(=O)C1CCN(c2ncccn2)CC1`, the Potency was inactive: > 76.9 µM. For the compound `CCS(=O)(=O)/N=C(\N)c1ccccc1`, the Potency is inactive: > 76.9 µM.

In the case of `COc1ccc(O)c(-c2cn[nH]c2-c2cccs2)c1`, the Potency was inactive: > 76.9 µM. The value for `O=C(Cn1nc(C(F)(F)F)c2c1CCC2)NCc1ccc(F)cc1` was inactive: > 76.9 µM. The same measure for `Cc1ccc2cc(CN(Cc3nnnn3C3CCCCC3)CC3CCCO3)c(=O)[nH]c2c1` (centres undefined): inactive: > 76.9 µM; for `Cc1cc(NC(=O)COC(=O)C2CCN(S(=O)(=O)c3ccc(Cl)cc3)CC2)no1`: inactive: > 76.9 µM; for `Cc1ccc(C(=O)CCNc2ccc(F)c(Cl)c2)o1`: inactive: > 76.9 µM. Turning to `O=C(c1ccccc1Oc1nnnn1-c1ccccc1)N1CCOCC1`, the Potency is inactive: > 76.9 µM. The value for `O=C(O)CC(O)C(=O)O` (centres undefined) was inactive: > 76.9 µM; that for `Cc1nnc(SCc2cccc(Oc3ccccc3)c2)n1N` was inactive: > 76.9 µM; that for `CCn1c(=O)c2cc(S(=O)(=O)NCc3ccccc3)ccc2n(CC)c1=O` was inactive: > 76.9 µM. The value for `CCOc1cccc(CN2CCN(c3cccc(C(F)(F)F)c3)CC2)c1O` was inactive: > 76.9 µM. The same measure for `O=C(c1cc2cc(Cl)cc(Cl)c2oc1=O)N1CCOCC1`: inactive: > 76.9 µM; for `COc1ccc(OCC(=O)N2CCN(c3nnc(-c4ccccc4)c4ccccc34)CC2)cc1`: inactive: > 76.9 µM; for `O=C(CCCC(=O)N(CC(=O)NC1CCCC1)Cc1ccc2c(c1)OCO2)Nc1ccccn1`: inactive: > 76.9 µM. For the compound `Cc1cc(C)nc(-n2nc(C)cc2NC(=O)CN2CCc3ccccc3C2)n1`, the Potency is inactive: > 76.9 µM. Regarding `COC(=O)c1[nH]c(C)c(/C(O)=C2\C(=O)C(=O)N(CCN(C)C)C2c2ccc(C)o2)c1C` (centres undefined), the Potency was inactive: > 76.9 µM. The value for `CCOC(=O)c1ccc(NC(=O)Nc2ccc3c4c(cccc24)C(=O)N3CC)cc1` was inactive: > 76.9 µM. For `O=C(Nc1ccc2c(c1)OCO2)C(c1ccccc1)N1CCC2(CC1)OCCO2` (centres undefined), the Potency is inactive: > 76.9 µM. As for `CCOC(=O)C1CCN(C(=O)CN(C)S(=O)(=O)c2cc(C)ccc2OC)CC1`, the Potency was inactive: > 76.9 µM. With `CCOCCCNC(=O)C1CCC(CNS(=O)(=O)c2ccc(F)cc2)CC1` (centres undefined), the Potency was inactive: > 76.9 µM. `CCN1C(=O)c2cccc3c(S(=O)(=O)NCc4ccco4)ccc1c23`: the Potency was inactive: > 76.9 µM. The value for `CC(=O)OC(C(=O)NCc1ccc2c(c1)OCO2)c1ccccc1Cl` (centres undefined) was inactive: > 76.9 µM; that for `CCOC(=O)Cc1cc(=O)n(-c2nc3ccccc3s2)[nH]1` was inactive: > 76.9 µM; that for `COc1ccc(OC)c(C(=O)c2oc3ccccc3c2NC(C)=O)c1` was inactive: > 76.9 µM.

Consider `CCn1c(=O)c2ccccc2n2c(SCC(=O)NCc3cccs3)nnc12`, for which the Potency is inactive: > 76.9 µM. As to `Cc1cccn2c(=O)c(C=NCc3ccccc3)c(NCCO)nc12`, the Potency is inactive: > 76.9 µM. On to `COc1ccc(C(C)(C)C)cc1NC(=O)c1ccoc1C`, for which the Potency is inactive: > 76.9 µM. Consider `COc1ccccc1-c1noc(-c2ccccc2)n1`, for which the Potency entry was “inactive”. The value for `Cc1cccc(NC(=O)CN(C)S(=O)(=O)c2cnc[nH]2)c1` was inactive: > 76.9 µM; that for `COc1ccccc1NC1SC(=O)N(c2ccccc2)C1=O` (centres undefined) was inactive: > 76.9 µM.

For `C=C(C)c1cccc(C(C)(C)NC(=O)Nc2ncccn2)c1`, the Potency is inactive: > 76.9 µM.

In the case of `CC(=O)c1c(C)nn(CCC(=O)O)c1C`, the Potency is inactive: > 76.9 µM. Take `COC(=O)c1ccccc1NC(=O)c1ccccc1OC`: the Potency is inactive: > 76.9 µM. The same measure for `O=c1[nH]n(CC2COC3(CCCCC3)O2)c(=O)c2ccccc12` (centres undefined): inactive: > 76.9 µM. The same measure for `COc1ccc(CC(=O)NCc2nnc(SCCOc3ccccc3)n2C)cc1`: inactive: > 76.9 µM; for `COc1cccc(Cn2c(=S)[nH]c3ccc(N4CCOCC4)cc3c2=O)c1`: inactive: > 76.9 µM. The value for `O=c1c2ccccc2nc(-c2ccco2)n1/N=C/c1ccco1` was inactive: > 76.9 µM. As to `O=C(Nc1ccccc1C(F)(F)F)c1cccnc1`, the Potency is inactive: > 76.9 µM. In the case of `Cc1c(C(=O)CN2CCOCC2)[nH]c2ccccc12`, the Potency is inactive: > 76.9 µM.

As to `O=S(=O)(O)c1nnc2sc3ccccc3n12`, the Potency was inactive: > 76.9 µM. The same measure for `Cc1c(NC(=O)N2CCCCCC2)c(=O)n(-c2ccccc2)n1C`: inactive: > 76.9 µM; for `COc1ccc(S(=O)(=O)N2CCC(C(=O)NCc3cccc(OC)c3)CC2)cc1`: inactive: > 76.9 µM. Regarding `Cc1ccc(Cl)cc1N1CCN(C(=O)Cn2ccc3ccccc3c2=O)CC1`, the Potency is inactive: > 76.9 µM. The same measure for `Cc1nc2oc3c(NCc4ccccn4)ncnc3c2c2c1COC(C)(C)C2`: inactive: > 76.9 µM; for `COc1ccccc1CNS(=O)(=O)c1cc(C)ccc1OC`: inactive: > 76.9 µM.

Regarding `CC1(C)Oc2ccc(C(=O)N3CCOCC3)cc2N(CC(=O)N2CCOCC2)C1=O`, the Potency was inactive: > 76.9 µM.
